# The whole screen tested about 310,000 compounds, of which about 2,200 (0.71%) showed an effect of 50% or more. The effect is printed as a negative number. This is one part of the list.
# Target: human ether-à-go-go-related gene (hERG) potassium channel (human, UniProt Q12809)
# Experiment: primary screen, population patch clamp on CHO cells stably expressing hERG
# human ether-à-go-go-related gene (hERG) potassium channel, sequence (Q12809 whole entry, looked up): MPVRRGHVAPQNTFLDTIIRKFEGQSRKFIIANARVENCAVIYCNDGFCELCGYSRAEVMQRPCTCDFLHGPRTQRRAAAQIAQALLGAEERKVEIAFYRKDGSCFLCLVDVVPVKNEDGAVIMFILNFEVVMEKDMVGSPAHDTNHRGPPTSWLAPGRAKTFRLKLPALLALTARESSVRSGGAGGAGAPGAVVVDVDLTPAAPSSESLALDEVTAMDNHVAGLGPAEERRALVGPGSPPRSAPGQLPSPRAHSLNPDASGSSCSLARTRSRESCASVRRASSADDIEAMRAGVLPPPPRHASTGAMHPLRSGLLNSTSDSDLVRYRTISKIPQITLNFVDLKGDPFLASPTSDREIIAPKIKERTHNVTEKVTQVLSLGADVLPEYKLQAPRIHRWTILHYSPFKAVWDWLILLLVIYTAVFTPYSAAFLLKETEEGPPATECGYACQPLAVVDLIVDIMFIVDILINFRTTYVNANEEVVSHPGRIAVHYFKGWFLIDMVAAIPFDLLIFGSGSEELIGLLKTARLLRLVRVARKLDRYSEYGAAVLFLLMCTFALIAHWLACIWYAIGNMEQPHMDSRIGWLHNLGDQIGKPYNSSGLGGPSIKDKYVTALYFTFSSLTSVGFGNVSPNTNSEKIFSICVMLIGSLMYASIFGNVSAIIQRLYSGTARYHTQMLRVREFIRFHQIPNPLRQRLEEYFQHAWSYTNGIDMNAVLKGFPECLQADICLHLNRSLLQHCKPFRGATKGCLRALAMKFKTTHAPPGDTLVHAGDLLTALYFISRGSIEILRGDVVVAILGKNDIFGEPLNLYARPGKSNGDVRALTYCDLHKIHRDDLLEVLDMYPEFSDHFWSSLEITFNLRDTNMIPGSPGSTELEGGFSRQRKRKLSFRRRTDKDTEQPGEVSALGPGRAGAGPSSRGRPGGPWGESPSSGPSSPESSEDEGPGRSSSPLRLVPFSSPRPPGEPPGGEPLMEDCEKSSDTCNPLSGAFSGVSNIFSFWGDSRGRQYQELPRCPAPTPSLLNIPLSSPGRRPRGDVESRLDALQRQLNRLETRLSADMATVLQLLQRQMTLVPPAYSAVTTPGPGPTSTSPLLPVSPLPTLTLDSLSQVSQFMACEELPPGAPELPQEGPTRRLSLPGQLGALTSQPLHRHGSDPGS
row,Structure (SMILES),"hERG current change (%, negative = inhibition) at 1uM"
1,Cc1cc(S(=O)(=O)NCCN2CCOCC2)c(C)s1.Cl,19.2%
2,O=C(O)c1ccc2c3n(nc2c1)-c1ccc(Cl)cc1CO3,11.4%
3,COC(=O)C1CN(C(=O)c2cccc(OC(F)F)c2)c2ccccc2O1 (centres unmarked),16.6%
4,O=C(Cc1csc(Nc2nc(=S)[nH]c3ccccc23)n1)NCc1cccc(Cl)c1,-4.52%
5,CC(C)CCOCC(=O)Nc1cccc(C(=O)O)c1,25%
6,COc1ccccc1N1CCN(CC(O)COc2c(OC)cccc2OC)CC1.Cl (centres unmarked),-9.62%
7,O=c1[nH]n(-c2ccccc2)c(=O)c(Cl)c1Cl,-0.931%
8,CCOC(=O)c1cc(C#N)c(N2CCCC2)nc1-c1ccccc1,-1.96%
9,CCN1CCN(CCn2c(=S)[nH]c3ccccc3c2=O)CC1,8.72%
10,CC(C)N(Cc1nccn1C)C(=O)c1cc(COc2ccc(F)cc2Cl)on1,-3.88%
11,COc1ccc(-c2nc(Cn3c(SCc4ccc(F)cc4)nc4ccncc43)c(C)o2)cc1OC,-3.36%
12,CCc1cccc(NC(=O)C(NC(=O)C2CCCCC2)C(C)C)c1 (centres unmarked),14%
13,Cc1ccc(N2CN=c3s/c(=C\c4cccnc4)c(=O)n3C2)cc1,-5.15%
14,O=C(Nc1ccc(N2CCOCC2)c(F)c1)c1ccncc1,6.63%
15,O=[N+]([O-])c1ccc(Sc2cccc3cccnc23)cc1,8.53%
16,O=C(c1cc(-c2ccccc2)nc2ccccc12)N1CCCC1,12.8%
17,O=C(CN1C(=O)C2CC=CCC2C1=O)OCCN1C(=O)c2ccccc2C1=O (centres unmarked),10.9%
18,CN(C)C(=O)c1c2c(nc3ccccc13)CCCC2,-1.79%
19,CCOC(=O)C1CCN(C(=O)C23CC4CC(CC(C4)C2)C3)CC1,9.59%
20,CN1CCN(NC(=O)c2cc(-c3cccc(Cl)c3)nc3ccccc23)CC1,0.482%
21,O=C(C1CCCO1)N1CCN(S(=O)(=O)c2cc(F)ccc2F)CC1 (centres unmarked),16.5%
22,Cc1ccc(C)c(OCCCC(=O)Nc2nccs2)c1,11.7%
23,COc1cccc(NC(=O)CCc2c(C)nc3nc(CNC(=O)c4cccc(F)c4)nn3c2C)c1,5.48%

row,Structure (SMILES),"hERG current change (%, negative = inhibition) at 1uM"
1,COc1ccc(-c2nn(-c3ccccc3)cc2/C=N/Nc2ccc3ccccc3n2)cc1OC,7.59%
2,COc1ccc(NC(=O)Cc2coc3cc(C)ccc23)cn1,7.61%
3,COc1cccc(Oc2cn[nH]c2-c2ccc(OC)cc2O)c1,8.37%
4,CCCOc1ccccc1NS(=O)(=O)c1ccc2[nH]c(=O)[nH]c2c1,10.9%
5,COC(=O)C(CC(=O)c1ccc(Cl)cc1)c1ccc(C(C)C)cc1 (centres unmarked),9.34%
6,CCOC(=O)c1ccc(N/C=C/C(=O)C(C)(C)C)cc1,17.4%
7,COc1ccc(C(=O)NCC(=O)OCC(=O)Nc2sccc2C#N)cc1OC,13.1%
8,CC(C)C[C@@H](CO)N1CCN(Cc2cccc(C#N)c2)CCC1=O,1.11%
9,CC1CN(C(=O)C(C)N2CCN(c3cccc(Cl)c3)CC2)CC(C)O1 (centres unmarked),5.57%
10,O=C(O)Cn1cc2c(n1)CCCC2,12.3%
11,OC(CNCC1(N2CCCCC2)CCCCC1)COc1ccc(Cl)cc1Cl (centres unmarked),-74.2%
12,COc1ccc(C2CC(c3cccs3)Nc3nnnn32)cc1 (centres unmarked),-0.191%
13,Cc1ccc(/C(O)=C2\C(=O)C(=O)N(CC(C)O)C2c2ccc(N(C)C)cc2)cc1 (centres unmarked),13.8%
14,O=C(CN1CCC(C(=O)c2ccc(F)cc2)CC1)Nc1ccccc1,-10.5%
15,CC1SC(c2cccc(Cl)c2)NC1=O (centres unmarked),2.86%
16,COc1ccc(-c2cc(C(=O)N3CCC3)c3ccccc3n2)cc1OC,3.5%
17,COCc1c(C(=O)OCc2c(C)noc2C)oc2ccccc12,9.37%
18,O=C(NNC(=S)Nc1ccc(F)cc1F)c1ccco1,-0.963%
19,COc1ccccc1NS(=O)(=O)c1ccc(NC(C)=O)cc1,10.5%
20,CC1=NN(C(=O)c2ccccc2C)C(O)(c2ccc(Cl)cc2)C1 (centres unmarked),16.7%
21,COc1ccc(CCNC(=O)c2ccc(Cl)nc2)cc1,11.8%
22,S=C(c1ccc(Cl)cc1)N1CCOCC1,2.47%
23,COCc1cc(C)nc(OCC(=O)N/N=C/c2ccc(O)cc2)c1C#N,-0.96%

row,Structure (SMILES),"hERG current change (%, negative = inhibition) at 1uM"
1,CCc1ccc(-c2nc(CS(=O)CC(=O)NCc3ccccc3)c(C)o2)cc1 (centres unmarked),8.64%
2,CCn1c(N2CCN(S(=O)(=O)CC)CC2)nc2ccccc21,2.39%
3,CCCNC(=O)[C@@H]1CCCN1C(=O)C1CCN(S(=O)(=O)c2ccc(C)cc2)CC1,2.84%
4,Cc1nc(N2CCN(C(=O)c3cccs3)CC2)c2c3c(sc2n1)CCCC3,1.12%
5,CCOC(=O)C1=C(N)Oc2ccc3ccccc3c2C1c1ccc(O)c(OC)c1 (centres unmarked),5.28%
6,O=C(O)c1cn(-c2ccccc2)nc1-c1ccncc1,29.4%
7,COc1ccc(CNC(=S)NCc2ccc(Cl)cc2)cc1OC,-7.46%
8,CCOC(=O)C1=C(C)NC(C)=C(C(=O)OCC)C1/C=C/c1ccccc1,0.179%
9,COc1ccc(C(=S)N2CCN(c3cccc(Cl)c3)CC2)c(OC)c1,9.95%
10,Cc1ccc(CN2CCN(Cc3ccon3)CC2CCO)cc1 (centres unmarked),8.87%
11,COC(=O)c1cc(OC)nc2c1c(=O)n(C)c(=O)n2C,8.35%
12,Cc1ccc(CNC(=O)COC(=O)c2ccc(S(=O)(=O)N(C)C)cc2)cc1,17.8%
13,O=C(NCCC1CCCCN1S(=O)(=O)c1ccc(Cl)cc1)C(=O)NCc1cccnc1 (centres unmarked),-5.1%
14,COc1ccccc1NC1=NC(c2ccc(Cl)cc2)N=C(N)N1 (centres unmarked),1.19%
15,CCCCCCCC1c2c(c(C)c(C)oc2=O)Oc2c(C)c(C)oc(=O)c21,12.5%
16,Cc1ccc(C(C(=O)NC2CCCCC2)N(CCCN2CCOCC2)C(=O)c2snc(C(N)=O)c2N)cc1 (centres unmarked),6.64%
17,CCC12CC3CC(C1)CC(C(=O)NNC(N)=O)(C3)C2,9.69%
18,CCCCc1c(C)nn(-c2nnc3c4ccccc4n(CC)c3n2)c1C,17%
19,Cc1ccnc(Nc2nc(-c3c(C)nc4sccn34)cs2)c1,-3.29%
20,C=CC[n+]1c(/C=C2\C=Cc3cc(C)ccc3N2CC)ccc2ccccc21.[Br-],-92.1%
21,Cc1cc(C)cc(NC(=O)CCC(=O)Nc2nnc(C(F)(F)F)s2)c1,12.6%
22,COc1ccc(Cn2c(=O)[nH]c3cc(C(=O)Nc4ccc(N5CCN(C)CC5)cc4)ccc32)cc1,16.4%
23,CC1=C(C)CC(C(=O)c2ccccc2)C(C(=O)O)C1 (centres unmarked),8.42%

row,Structure (SMILES),"hERG current change (%, negative = inhibition) at 1uM"
1,CCn1c(SCC(=O)Nc2cccc(C)c2)nc2ccccc2c1=O,-3.21%
2,Nc1nc2c(ccc3ccccc32)s1,11.7%
3,c1ccc(Cc2nc(-c3ccccn3)no2)cc1,5.25%
4,COc1ccc(NC(=O)CNc2cc(S(=O)(=O)N3CCOCC3)ccc2NCC2CCCO2)cc1 (centres unmarked),6.28%
5,Cc1cc(C)nc(NS(=O)(=O)c2ccc(NC(=S)NC(=O)c3ccco3)cc2)n1,10.5%
6,Cc1ccc(C(=O)OCC(=O)NCCNC(=O)COC(=O)c2ccc(C)s2)s1,9.7%
7,C#CCOCCOCCOCCNc1nc(N2CCN(C(=O)[C@H]([C@@H](C)CC)n3cc([C@@H](N)CC(C)C)nn3)CC2)nc(N2CCN(C(=O)[C@H](Cc3ccc(O)cc3)n3cc([C@@H](N)CC(C)C)nn3)CC2)n1.Cl,9.79%
8,O=C(CC1CS(=O)(=O)CC1CC(=O)Nc1ccc2c(c1)OCCO2)Nc1ccc2c(c1)OCCO2 (centres unmarked),1.74%
9,COc1cc2ccccc2cc1C(=O)N/N=C/c1cccnc1,0.286%
10,Cc1ccc2c(c1)N(CC(=O)Nc1ccccc1F)C(=O)CO2,17.1%
11,CC1(C)C(=O)OC(c2cccs2)C(C)(C)C1=O (centres unmarked),10.1%
12,O=c1c2ccccc2nc2n1C(CBr)CN2 (centres unmarked),12%
13,Cc1cc(C)c(OCC(=O)Nc2ccccc2N2CCOCC2)c(C)c1,16.7%
14,Cc1ccc(S(=O)(=O)CCC(=O)Nc2ccccc2Cl)cc1,11.9%
15,COC(=O)c1ccccc1NC(=O)CN(c1ccc(C)cc1)S(C)(=O)=O,5.38%
16,O=C(Cc1ccccc1)Nc1ccc2c(c1)OC1(CCCC1)O2,10.2%
17,O=C1c2cccnc2C(=O)N1c1cccc(-c2nc3ccccc3o2)c1,8.94%
18,CC(C)c1ccc(NC(=O)C(c2ccc3c(c2)OCO3)N2CCCCC2)cc1 (centres unmarked),9.37%
19,COc1ccc(N2CCN(S(=O)(=O)c3ccc(OC)c(C(=O)N4CCCCC4)c3)CC2)cc1,10%
20,CC(C)(C)OC(=O)[C@H](Cc1ccccc1)NC(=O)c1nc[nH]c1C(=O)NCCCCC[NH3+].[Cl-],6.62%
